The supplement of paper PMC10986608
The list shows a part of the results. Repeats are few or missing, and single values can be far off.

Test system: Candida albicans DPL-15
Experiment: growth (OD600) after compound treatment (apparently relative to screen median) (relative growth (fraction; screen median 1.02)); DPL-15 is a caspofungin-resistant clinical isolate; higher = more fungal growth (less antifungal activity)
Settings: 25 µM; RPMI 1640; 48 h; 30 °C

Row | SMILES | growth
1 | C[C@H](NS(=O)(=O)OCCCc1ccccc1)c1ccccc1 | 0.989
2 | COc1ccc(Cn2ccc3nc4cc(O)cc(O)c4c(=O)n32)cc1 | 1.27
3 | Cc1cc2c(nc1C)CCCN2S(=O)(=O)c1cccs1 | 0.978
4 | CC#CCOC[C@@H](NC(=O)CC1(CNC(=O)c2cccc(/C=N/NS(=O)(=O)c3ccc(C)cc3)c2)CCCCC1)c1ccccc1 | 0.997
5 | C[C@H]1Cc2c(-c3ccccc3)nc3c(c2CO1)CN(C(=O)c1cccnc1)CC3 | 1.34
6 | O=C(O)c1cc(=O)c2c(O)cccc2o1 | 1.1
7 | COc1ccc(OC)c2c(=O)oc(C)cc12 | 1.12
8 | CC(=O)C1=C(C)N(Cc2ccccc2)C(=S)NC1c1ccccc1 (configuration not stated) | 0.977
9 | CC#CCN1C(=O)NC(c2ccccc2)C(C(C)=O)=C1C (configuration not stated) | 1.02
10 | CC(=O)OC[C@@H]1OC(OC(C)=O)[C@@H](OC(C)=O)[C@H](OC(C)=O)[C@H]1OC(C)=O (some centres not stated) | 1.21
11 | COc1ccc(Cn2ncc(Cc3ccccc3)c2N)cc1 | 0.246
12 | C#CCC(C)(C)CNC(=O)CC1(CNC(=O)c2cccc(CO)n2)CCCCC1 | 1.13
13 | Cc1nn(-c2ccccc2)c2c1C(c1ccc3c(c1)OCO3)NC2=O (configuration not stated) | 0.997
14 | C=CC[C@@H](O)COc1cc2c(cc1C1(c3cc4c(cc3OC[C@H](O)CC=C)OCO4)C(=O)Nc3cc(F)ccc31)OCO2 | 1.01
15 | C=CCNc1cc(OC)cc(OC)c1C(=O)OCC(=O)c1ccc(OC)cc1 | 1.01
16 | Clc1cc2ccccc2c(CCCc2ccccc2)n1 | 1.11
17 | COC(=O)C1=C(C)N(Cc2ccc(Cl)cc2)C(=S)NC1c1cccc(F)c1 (configuration not stated) | 0.871
18 | CC1=C[C@H]2c3c(c(O)c(O)c4[nH]c5ccccc5c(=O)c34)[C@H](c3cc(O)c(O)c4[nH]c5ccccc5c(=O)c34)[C@H]2C(C)(C)C1 | 1.03
19 | COC(=O)Cc1nnn2c1[C@H](C)[C@H](c1ccc(C)cc1)OCCC2 | 1.13
20 | COC[C@@H](Cc1ccc(OC)c(OC)c1)[C@@H](COC)Cc1ccc(OC)c(OC)c1 | 1.13
21 | Cc1ccc(C2c3c(CC(C)C)n[nH]c3C(=O)N2c2ccccc2)cc1 (configuration not stated) | 0.962
22 | COc1cc([C@H]2c3c(OC)c(O)c4oc5cccc(F)c5c(=O)c4c3[C@@H]3C=C(C)CC(C)(C)[C@H]23)c2c(=O)c3c(F)cccc3oc2c1O | 1.05
